{"source": "the RNAGym collection of RNA variant scans (doi:10.7554/elife.90254)", "parents": {"B1": {"name": "OR4K15 (parent)", "chain": "GUUAACGGUCAUAGGCCAUGGAAACUAGGAGCACCAUUUCGCUGCCAGUGAAGAAAUGAACAAAGAAAAUCUGGGCCAGGCAGGCAUCAAAAGAAAUAGUCUUGCGCUCAACCAGAAAGUCUGUAAUCAUUUUAAGGGUA"}}, "note": "The source gives no read counts; variants with many changes may rest on few reads."}
{"variants_of": "B1", "experiment": "self-cleavage, relative activity (ratio to wild type); higher = more cleavage; in vitro, sequencing; the parent is a self-cleaving ribozyme"}
{"variant": "A18U A23G A52G", "self-cleavage": 0.96}
{"variant": "A18U U19C A27G U49C A82U A98G U108C A140G", "self-cleavage": 0.01}
{"variant": "A18U A67G A114G", "self-cleavage": 0.16}
{"variant": "A18U G50U A67G", "self-cleavage": 1.14}
{"variant": "A18G U97C U127C", "self-cleavage": 0.34}
{"variant": "A18G A82G U100C U103C", "self-cleavage": 2.05}
{"variant": "A18U U37C A67G A96G A118G U122C U131C", "self-cleavage": 0.28}
{"variant": "A18G G75A A91G U131C", "self-cleavage": 0.14}
{"variant": "A18G A92G U102C A117G A118U", "self-cleavage": 1.8}
{"variant": "A18G U19C U49A", "self-cleavage": 0.78}
{"variant": "A18U G53U A90G", "self-cleavage": 1.67}
{"variant": "A18G A114G U130C", "self-cleavage": 0.22}
{"variant": "A18U A60G G75A U127C", "self-cleavage": 0.01}
{"variant": "A18G G83A U122C", "self-cleavage": 1.37}
{"variant": "A18G A68U U70C", "self-cleavage": 0.41}
{"variant": "A18U A52G A94U C107A A140U", "self-cleavage": 0.02}
{"variant": "A18U A22G A56G U122C", "self-cleavage": 1.19}
{"variant": "A18G G106C A111G U122C", "self-cleavage": 0.01}
{"variant": "A18G A94G U100C C113U", "self-cleavage": 0.13}
{"variant": "A18G U19C U72C A94G U127C", "self-cleavage": 0.09}
{"variant": "A18G U26C A60G U72A A135G", "self-cleavage": 0.06}
{"variant": "A18U A51U A69G", "self-cleavage": 0.79}
{"variant": "A18U U26C A33G U39C A78G", "self-cleavage": 0.19}
{"variant": "A18G U38C A47C U131C", "self-cleavage": 0.48}
{"variant": "A18U U19A A22G A91U U131C", "self-cleavage": 0.45}
{"variant": "A18U A56G A82C A91G", "self-cleavage": 0.13}
{"variant": "A18G U87A G115U", "self-cleavage": 0.12}
{"variant": "A18G A62G U103C A111G", "self-cleavage": 0.02}
{"variant": "A18U A56C A66G", "self-cleavage": 1.34}
{"variant": "A18U A47G G74A A89U A117G", "self-cleavage": 0.22}
{"variant": "A18G U39A A69G A82G A117U U133G", "self-cleavage": 0.91}
{"variant": "A18U G75C A78U A116G", "self-cleavage": 0.05}
{"variant": "A18G A68U G75A", "self-cleavage": 0.13}
{"variant": "A18U A63G A114C", "self-cleavage": 0.15}
{"variant": "A18U A63U A118G", "self-cleavage": 1.18}
{"variant": "A18G U49C A54G A60G G106A", "self-cleavage": 0.03}
{"variant": "A18U U39C U100C", "self-cleavage": 2.55}
{"variant": "A18U A30G A62G", "self-cleavage": 0.81}
{"variant": "A18U A67G U87A A140G", "self-cleavage": 1.68}
{"variant": "A18U U70C A92G A117G", "self-cleavage": 0.7}
{"variant": "A18U G41A A59U U97C", "self-cleavage": 0.9}
{"variant": "A18G U39A A69G U70C", "self-cleavage": 0.24}
{"variant": "A18U A56G A78G", "self-cleavage": 0.24}
{"variant": "A18G A68G A89G A140G", "self-cleavage": 1.42}
{"variant": "A18U U72A C77U A117U", "self-cleavage": 0.26}
{"variant": "A18U U127C A129G U130A", "self-cleavage": 0.71}
{"variant": "A18U A22G A27G A62G U87A", "self-cleavage": 1.3}
{"variant": "A18G A96U A129U", "self-cleavage": 0.94}
{"variant": "A18U A52G U100C", "self-cleavage": 2.03}
{"variant": "A18U A62G U70C A140G", "self-cleavage": 0.39}
{"variant": "A18U U19C U39C", "self-cleavage": 1.74}
{"variant": "A18U A54G A59G U87C A118G", "self-cleavage": 0.39}
{"variant": "A18U C46U A126U", "self-cleavage": 0.95}
{"variant": "A18G A69G U72C", "self-cleavage": 0.13}
{"variant": "A18U G41A A90U A118G U131C", "self-cleavage": 0.5}
{"variant": "A18U U72C U97C U124A", "self-cleavage": 0.05}
{"variant": "A18U A92G A110U", "self-cleavage": 0.42}
{"variant": "A18G U26C U43C A90G", "self-cleavage": 1.42}
{"variant": "A18U A33G U43A A78G A86G A118U A126G", "self-cleavage": 0.04}
{"variant": "A18G G53A A94G", "self-cleavage": 1.67}
{"variant": "A18G A90G A95G", "self-cleavage": 1.56}
{"variant": "A18U A24C A78U A94G", "self-cleavage": 0.34}
{"variant": "A18G U26C U102A G138A", "self-cleavage": 1.88}
{"variant": "A18U A23G U103C A134U A140G", "self-cleavage": 0.6}
{"variant": "A18G U57C A92G G137U", "self-cleavage": 0.35}
{"variant": "A18U A33G A118G U120C U127C", "self-cleavage": 0.02}
{"variant": "A18U G74A A91G A98U U108C A110G", "self-cleavage": 0.01}
{"variant": "A18U A114U A135G", "self-cleavage": 0.01}
{"variant": "A18G U38C U132A", "self-cleavage": 0.51}
{"variant": "A18U A67C A68U", "self-cleavage": 1.86}
{"variant": "A18U A47G A54U A62G A92G A95G A125G", "self-cleavage": 0.42}
{"variant": "A18G G28A A96G A114U A118G", "self-cleavage": 0.09}
{"variant": "A18G U57C A60G", "self-cleavage": 1.55}
{"variant": "A18G A67G U72A", "self-cleavage": 0.19}
{"variant": "A18G G29U A54G C88U A89U A94G", "self-cleavage": 1.26}
{"variant": "A18G A68G A96G U102A", "self-cleavage": 0.82}
{"variant": "A18G A116G A140G", "self-cleavage": 0.58}
{"variant": "A18G U87C U103C A126C", "self-cleavage": 0.27}
{"variant": "A18U A51U C88A", "self-cleavage": 1.61}
{"variant": "A18U U49C A118G", "self-cleavage": 0.5}
{"variant": "A18G U87C A98G U108C A111G", "self-cleavage": 0.01}
{"variant": "A18U A36U A94G", "self-cleavage": 1.01}
{"variant": "A18U C77U A116G", "self-cleavage": 0.6}
